Assay results reported in the RNAGym collection of RNA variant scans (doi:10.7554/elife.90254).
Read counts are not given, so values of variants with three or more changes are uncertain.

B1: LINE1-full (parent)
chain: UACGUAGGUGGUUUUCCCCUGAUAGUGCUAAGGGGGCCUGGAAGUUUGGACUGGGCAGAGCUCAACACAGCGUGGCAAAGUGGCUGUGGCUAGACUGCCUCUCUGGAUUCCUCGUCACUCAGCAGGGCAUCUCUGAGAGAAAUGCC

Variants of: B1
Assay: self-cleavage, relative activity (ratio to wild type); higher = more cleavage; in vitro, sequencing; the parent is a self-cleaving ribozyme

Q: For A2U U130C A140G, which self-cleavage is on record?
A: 0.88

Q: For C3A A64G A141G, which self-cleavage is on record?
A: 0.15

Q: For C3A G4U U15A, which self-cleavage is on record?
A: 0.52

Q: For C3A G11U U45C, which self-cleavage is on record?
A: 2.04

Q: For C3A U5C U9A A42G U46G, which self-cleavage is on record?
A: 0.32

Q: Which self-cleavage does the source give for C3A U9A A92G A117U A136G here?
A: 0.13

Q: For C3A U29C G74A U96C, which self-cleavage is on record?
A: 0

Q: With C3G A6G U52A U134G A136G as the variant, how does the self-cleavage read?
A: 1.97

Q: Which self-cleavage does the source give for C3G A31G U39A U108C A140U here?
A: 0.21

Q: For C3G A138U A141G, which self-cleavage is on record?
A: 0.73

Q: For C3G U20C U85C, which self-cleavage is on record?
A: 0.24

Q: With C3U A22G A30U U85G as the variant, how does the self-cleavage read?
A: 0.07

Q: Which self-cleavage does the source give for C3U A22G A42G A57G U87A here?
A: 0.21

Q: Which self-cleavage does the source give for C3U A22G A141G A142G here?
A: 0.45

Q: Which self-cleavage does the source give for C3U A22G G36U U46C G83U U102C here?
A: 0.54

Q: With C3U A22G G82U as the variant, how does the self-cleavage read?
A: 0.75

Q: Which self-cleavage does the source give for C3U A22G U108C here?
A: 0

Q: Which self-cleavage does the source give for C3U A24U G72A here?
A: 0.58

Q: Which self-cleavage does the source give for C3U A31G A65G here?
A: 0.56

Q: With C3U A43G U104A as the variant, how does the self-cleavage read?
A: 0.15

Q: Which self-cleavage does the source give for C3U A50G A67U C113U A121U U134C here?
A: 0.07

Q: With C3U A57G A94G as the variant, how does the self-cleavage read?
A: 0

Q: With C3U A57U U91C C113U as the variant, how does the self-cleavage read?
A: 0.17

Q: With C3U A94G U134C as the variant, how does the self-cleavage read?
A: 0

Q: Which self-cleavage does the source give for C3U C61A A124G here?
A: 0.09

Q: Which self-cleavage does the source give for C3U G7U A31G here?
A: 0.67

Q: With C3U G11A U23C U130C as the variant, how does the self-cleavage read?
A: 0

Q: Which self-cleavage does the source give for C3U G25C A43U G82A here?
A: 0.69

Q: For C3U G27A A64U A141G, which self-cleavage is on record?
A: 0.18

Q: With C3U G35A U96A as the variant, how does the self-cleavage read?
A: 0.14

Q: Which self-cleavage does the source give for C3U G49U U134A A142G here?
A: 0.27

Q: Which self-cleavage does the source give for C3U G53A G60A U132A here?
A: 0.04

Q: For C3U G106C A142G, which self-cleavage is on record?
A: 1.07

Q: With C3U U9C A24G A43G G89A as the variant, how does the self-cleavage read?
A: 0.26

Q: With C3U U12A U73C G97A A136C as the variant, how does the self-cleavage read?
A: 0.15

Q: With C3U U12C A24G A141G as the variant, how does the self-cleavage read?
A: 0.49

Q: For C3U U13C A43G A117G, which self-cleavage is on record?
A: 0.97

Q: Which self-cleavage does the source give for C3U U13C G27A U112C U132C A141G here?
A: 1.25

Q: Which self-cleavage does the source give for C3U U13C U81A U87C here?
A: 0.25

Q: For C3U U14C A77G A92U A129U, which self-cleavage is on record?
A: 0.9

Q: For C3U U14C U85C A121C, which self-cleavage is on record?
A: 0.33

Q: For C3U U15C U23C U45C U102C, which self-cleavage is on record?
A: 0.92

Q: With C3U U26A A140G as the variant, how does the self-cleavage read?
A: 0.89

Q: With C3U U39C A142G as the variant, how does the self-cleavage read?
A: 0.84

Q: With C3U U46A U87A A140G A142G as the variant, how does the self-cleavage read?
A: 0.23

Q: For C3U U47A U81C, which self-cleavage is on record?
A: 1.19

Q: Which self-cleavage does the source give for C3U U47A U130A here?
A: 1.24

Q: Which self-cleavage does the source give for C3U U52A G82A here?
A: 1.3

Q: Which self-cleavage does the source give for C3U U52C C123U here?
A: 0.53

Q: For C3U U62A U100C U112A, which self-cleavage is on record?
A: 0.03

Q: For C3U U62C A117U A138G, which self-cleavage is on record?
A: 0.13

Q: With C3U U100A U130C as the variant, how does the self-cleavage read?
A: 0.38

Q: Which self-cleavage does the source give for C3U U100C U102A U108C here?
A: 0.97

Q: With C3U U102C U134A as the variant, how does the self-cleavage read?
A: 1.46

Q: Which self-cleavage does the source give for C3U U109A U119C here?
A: 1.11

Q: With G4A A22G A31C A129U as the variant, how does the self-cleavage read?
A: 1.28

Q: Which self-cleavage does the source give for G4A A22G A124G A141G here?
A: 0.99

Q: Which self-cleavage does the source give for G4A A22G A142G here?
A: 0.48

Q: Which self-cleavage does the source give for G4A A22G U47C G97A G114A here?
A: 0.11

Q: For G4A A22U C37U A77G U115A, which self-cleavage is on record?
A: 1.75

Q: For G4A A31U U45C U108C U132C, which self-cleavage is on record?
A: 1.53

Q: Which self-cleavage does the source give for G4A A50G C61G U119A here?
A: 0.05

Q: With G4A A65G U112C as the variant, how does the self-cleavage read?
A: 0.08

Q: With G4A A65G U115C as the variant, how does the self-cleavage read?
A: 0

Q: For G4A A69U U87A U100C, which self-cleavage is on record?
A: 0.02

Q: For G4A A92U U143C G144A, which self-cleavage is on record?
A: 0.99

Q: Which self-cleavage does the source give for G4A C19A A141G here?
A: 0.83

Q: Which self-cleavage does the source give for G4A C19U U85C U112C A140G here?
A: 0.08

Q: With G4A C37U U132C as the variant, how does the self-cleavage read?
A: 0.47

Q: Which self-cleavage does the source give for G4A C61U A136G here?
A: 0.05

Q: Which self-cleavage does the source give for G4A C68U A69U here?
A: 0.03

Q: With G4A C98G C118U U143C as the variant, how does the self-cleavage read?
A: 0.18

Q: Which self-cleavage does the source give for G4A G10A A141G A142G here?
A: 1.15

Q: With G4A G54A U109C as the variant, how does the self-cleavage read?
A: 0.14

Q: With G4A G89A U91C as the variant, how does the self-cleavage read?
A: 0.07

Q: With G4A G125A A138G U143C as the variant, how does the self-cleavage read?
A: 0.79

Q: Which self-cleavage does the source give for G4A U5C U73C C84G A107G here?
A: 0.38

Q: With G4A U9C A43G C118G U130C A140G as the variant, how does the self-cleavage read?
A: 0.71

Q: With G4A U9C U12C A31U C71A A79G U115A A129U as the variant, how does the self-cleavage read?
A: 0.37

Q: With G4A U9G U23C A92U as the variant, how does the self-cleavage read?
A: 0.35

Q: With G4A U12C U15C U85C U143C as the variant, how does the self-cleavage read?
A: 0.35

Q: Which self-cleavage does the source give for G4A U13A U62C U115A here?
A: 0.12

Q: For G4A U13C A69C G126A, which self-cleavage is on record?
A: 0.29

Q: For G4A U14C A31U U81C, which self-cleavage is on record?
A: 0
